From paper PMC4336329 (PLoS ONE, 2015)
The campaign covered roughly 310,000 compounds. About 14,000 (4.5%) showed an effect of 50% or more. Effects have a minus sign here. This is one part of the list.

Target: human ether-à-go-go-related gene (hERG) potassium channel (human, UniProt Q12809)
Test: primary screen, population patch clamp on CHO cells stably expressing hERG
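Further: peak tail current of the secondary pulse compared with the same well before compound.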

human ether-à-go-go-related gene (hERG) potassium channel, sequence (Q12809 whole entry, looked up): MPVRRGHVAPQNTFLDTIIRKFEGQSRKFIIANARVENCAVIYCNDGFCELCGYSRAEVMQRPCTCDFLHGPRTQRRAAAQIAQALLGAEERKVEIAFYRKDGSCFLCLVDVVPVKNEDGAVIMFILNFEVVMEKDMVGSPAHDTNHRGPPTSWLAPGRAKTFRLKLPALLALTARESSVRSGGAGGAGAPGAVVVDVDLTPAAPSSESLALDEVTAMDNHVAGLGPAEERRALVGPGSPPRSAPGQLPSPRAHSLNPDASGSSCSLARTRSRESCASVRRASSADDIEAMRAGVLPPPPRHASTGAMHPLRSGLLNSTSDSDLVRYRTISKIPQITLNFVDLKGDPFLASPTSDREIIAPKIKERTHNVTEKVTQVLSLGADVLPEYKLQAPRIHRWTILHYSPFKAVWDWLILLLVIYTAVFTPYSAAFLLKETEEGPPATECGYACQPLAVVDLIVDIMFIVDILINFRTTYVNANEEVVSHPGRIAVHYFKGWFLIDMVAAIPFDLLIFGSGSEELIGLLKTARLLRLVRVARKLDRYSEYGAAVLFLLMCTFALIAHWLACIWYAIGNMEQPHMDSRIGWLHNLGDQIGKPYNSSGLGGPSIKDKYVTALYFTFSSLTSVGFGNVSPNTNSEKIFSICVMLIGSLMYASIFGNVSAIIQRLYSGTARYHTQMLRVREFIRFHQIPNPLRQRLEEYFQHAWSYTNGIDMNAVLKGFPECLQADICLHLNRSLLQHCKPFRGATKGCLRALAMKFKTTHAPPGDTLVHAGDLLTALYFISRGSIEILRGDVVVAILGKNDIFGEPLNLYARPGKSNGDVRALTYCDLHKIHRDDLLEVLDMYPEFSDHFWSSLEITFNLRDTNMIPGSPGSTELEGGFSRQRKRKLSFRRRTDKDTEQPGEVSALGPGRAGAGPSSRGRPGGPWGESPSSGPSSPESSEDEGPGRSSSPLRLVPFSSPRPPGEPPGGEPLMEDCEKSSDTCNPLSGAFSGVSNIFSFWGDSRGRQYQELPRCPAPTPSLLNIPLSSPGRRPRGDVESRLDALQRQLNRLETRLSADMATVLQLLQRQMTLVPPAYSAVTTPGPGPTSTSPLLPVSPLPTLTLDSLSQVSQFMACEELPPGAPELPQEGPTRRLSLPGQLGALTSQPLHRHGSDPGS

| Compound | hERG current change (%, negative = inhibition) at 10uM |
| --- | --- |
| CN(C)c1ccc(/C=N/N(CCO)C2=NS(=O)(=O)c3ccccc32)cc1 | 21.8% |
| COc1ccc(/C=C/c2cc(C(=O)O)c3ccccc3n2)cc1 | 11.6% |
| CC(C)N(C(=O)Cn1c(SCC(=O)NC2CC2)nc2ccccc21)C(C)C | -10.5% |
| O=C(O)[C@H](Cc1ccccc1)N1Cc2ccccc2C1=O | -4.51% |
| CCOc1ccccc1N=Nc1c(C)[nH]n(-c2ccccc2)c1=O | 16.1% |
| O=C(Nc1ccccc1)c1ccsc1 | -0.506% |
| Cc1cccc(N2CCN(CC(=O)N(C)Cc3ccccc3)CC2C)c1 (stereo not drawn) | -7.75% |
| c1ccc(-n2nc3c(ccc4cnnc43)[nH]2)cc1 | -4.44% |
| O=C(O)c1ccc(Cl)c(S(=O)(=O)Nc2ccc(OCc3ccccc3)cc2)c1 | 7.79% |
| COCC(C)n1c(C)cc(C(=O)CSc2nc(C)c(C)c(C)n2)c1C (stereo not drawn) | -16.4% |
| CC(C)(C)c1ccccc1NC(=O)CN1C(=O)NC2(CCCCCC2)C1=O | 4.14% |
| O=S(=O)(c1ccccc1)N(CC1CO1)c1cc(Cl)ccc1Cl (stereo not drawn) | 14.2% |
| O=C(COc1ncnc2ccccc12)NC(=O)NCc1ccccc1 | -8.05% |
| O=C(O)c1ccc(N2C(=O)CSC2=S)cc1 | -9.23% |
| CCOC(=O)c1ccc(NNC(C)=O)c([N+](=O)[O-])c1 | 19.9% |
| O=C(N/N=C/c1c[nH]c2ccccc12)C1CC1c1ccccc1 (stereo not drawn) | -4.47% |
| CC(=O)NC(=O)NC1OC(=O)C(Cl)=C1Cl (stereo not drawn) | 3.52% |
| Cc1nc(CN(C)C(=O)c2ccccc2OC2CCN(S(C)(=O)=O)CC2)cs1 | 3.35% |
| COc1cc(OC)cc(-c2n[nH]c(=S)n2-c2ccc3c(c2)OCCO3)c1 | 18.2% |
| COc1ccc(C(C(=O)NC2CCCC2)N(Cc2ccco2)C(=O)c2snc(C(N)=O)c2N)cc1OC (stereo not drawn) | 30.1% |
| COc1ccc(C2CC(c3ccccc3)=NN2c2ccccc2)c(C(=O)O)c1OC (stereo not drawn) | 19.4% |
| O=[N+]([O-])c1ccc(C(=S)N2CCC(Cc3ccccc3)CC2)cc1 | -32.4% |
| Cc1cc(C)n2nc(C(=O)Nc3nccs3)nc2n1 | -11.8% |

| Compound | hERG current change (%, negative = inhibition) at 10uM |
| --- | --- |
| COc1ccc(C(=O)NCCCOc2cccnc2)cc1OC1CCN(C(C)=O)CC1 | 5.18% |
| Cc1ccc(CNC(=O)c2cccc3c2C(=O)c2ccc(N4CCCCC4)cc2S3(=O)=O)cc1 | -6.76% |
| CCC(C)(C(=O)Nc1ccc(OC)cc1)N(C)C(=O)Cn1nnnc1N (stereo not drawn) | 15.6% |
| COCCNC(=O)C1CCN(Cc2cccc(OCc3ccccc3)c2)CC1 | -12.2% |
| N#C/C(=C\c1ccc(C(=O)O)cc1)c1ccccn1 | 21% |
| Cc1ccc(Cn2ccnc2C(=O)Nc2ccccc2)cc1 | 6.59% |
| CCN(CC)S(=O)(=O)c1ccc(C(=O)OCC(=O)Nc2sc3c(c2C#N)CCCCC3)cc1 | 8.12% |
| O=C(c1ccco1)N1CCN(C(=O)C2CCN(S(=O)(=O)c3cccs3)CC2)CC1 | -47.7% |
| Brc1cccc(-c2nnc3sc(CNC4CCCC4)cn23)c1 | -16.2% |
| CCN(CC)C(=O)N1c2ccccc2C=Cc2ccccc21 | -10.2% |
| Cc1ccc(CNS(=O)(=O)c2ccc3c(c2)n(C)c(=O)c(=O)n3C)cc1 | -13.5% |
| COc1ccc(NC(=O)COC(=O)C23CCC(=O)N2c2ccccc2S3)cc1 (stereo not drawn) | -4.68% |
| COc1cc(NC(c2ccccc2)c2ccccc2)cc(OC)c1OC | 17.9% |
| Cn1ncc2c(N3CCC(Cc4ccccc4)CC3)ncnc21 | -21.4% |
| COCCCNC(=O)c1sc2ncnc(N3CCc4ccccc4C3)c2c1C | -23.9% |
| Cc1noc(C)c1COc1ccc(C(=O)OCC(=O)Nc2c(C)n(C)n(-c3ccccc3)c2=O)cc1 | 15.9% |
| Cc1cc(Br)cc(Cl)c1OC(=O)c1ccncc1 | -2.84% |
| Cn1c(SCC(=O)NNC(=O)Cc2ccccc2)nnc1-c1ccccc1 | 18.9% |
| CC(C)OCC(O)CS(=O)Cc1ccccc1 (stereo not drawn) | 13.7% |
| Cc1ccc(-n2nc3ccc(NC(=O)/C=C/c4ccco4)cc3n2)cc1 | 7.32% |
| CCOC(=O)CSc1nc(N)c(C#N)c(-c2ccc(OCC)cc2)c1C#N | 6.31% |
| O=C1Nc2ccccc2Oc2cc([N+](=O)[O-])ccc21 | 7.63% |
| CCOC(=O)C1CCCCN1Cc1ccc(F)cc1 (stereo not drawn) | 4.77% |

| Compound | hERG current change (%, negative = inhibition) at 10uM |
| --- | --- |
| O=c1oc2ccc(NS(=O)(=O)c3cccc4cccnc34)cc2s1 | 24.4% |
| CCC(CC)C(=O)N1CCN(c2ccccc2)CC1 | -2.08% |
| Fc1ccc(-c2nnn3c2nc(NCc2ccccc2)c2ccccc23)cc1 | 10.5% |
| O=C(Oc1ccccc1C(=S)N1CCOCC1)c1ccc([N+](=O)[O-])cc1[N+](=O)[O-] | -45.2% |
| COc1cccc(CNC(=O)C2=Cc3cccc(OC)c3OC2)c1 | 4.36% |
| CC(C)(C)NC(=O)NC(=O)COC(=O)CCCc1c[nH]c2ccccc12 | -4.44% |
| N#Cc1nc(-c2cccs2)oc1NCCN1CCOCC1 | -6.24% |
| CCCCOc1cccc(C(=O)N(Cc2cccs2)C2CCS(=O)(=O)C2)c1 (stereo not drawn) | -29.2% |
| N=C1C(=O)OCC1c1ccccc1NC(=O)CN1CCCCC1 (stereo not drawn) | -3.03% |
| CC(=O)NCCc1cc2ccc(C)cc2[nH]c1=O | 11.4% |
| C=CCn1cnc2c(c1=O)c1nc3ccccc3nc1n2-c1ccc(C)cc1 | -9.49% |
| O=C(COC(=O)CC1CCCCC1)Nc1c(Cl)cccc1Cl | 12% |
| Cc1nn(C)c(Cl)c1/C=N/OC(=O)c1ccc(F)cc1 | -17.6% |
| CCOC(=O)c1sc(=S)n(C)c1NC(=O)c1cccc(Br)c1 | 5.67% |
| CC1CCN(S(=O)(=O)N2CCC(C(=O)NCc3cccs3)CC2)CC1 | -22.9% |
| Cc1ccc(/C=N\NC(=O)C2CC(=O)N(c3ccccc3)C2)o1 (stereo not drawn) | -6.11% |
| COc1ccc(S(=O)(=O)N2CCCC(C(F)(F)F)C2)cc1 (stereo not drawn) | 10.2% |
| C[C@H](O)[C@@H](C(=O)N1CCN(C(=O)OC(C)(C)C)CC1)n1cc(CCCCNC(=O)OC(C)(C)C)nn1 | -7.14% |
| Cc1ccc(NC(=O)OCCN2CCN(S(=O)(=O)c3ccc(C)cc3)CCC2=O)cc1 | -18.5% |
| O=C(CS(=O)c1ccc(Br)cc1)N1CCOCC1 (stereo not drawn) | 1.98% |
| C(=N\Nc1cc(N2CCCCC2)ncn1)/c1ccco1 | 2.21% |
| CCOc1ccc(C(=O)Nc2nnc(C)s2)cc1OCC | -4.04% |
| Cc1ccc(C)c(CSCC(=O)NCc2cccs2)c1 | -3.29% |

| Compound | hERG current change (%, negative = inhibition) at 10uM |
| --- | --- |
| CCN(CC)S(=O)(=O)c1ccc(N=Cc2c(O)n(-c3ccccc3)c(=O)[nH]c2=O)cc1 | -5.2% |
| O=C(NCc1n[nH]c(=S)n1-c1ccccc1)c1ccco1 | 23% |
| O=C(O)c1c2c(nc3ccccc13)/C(=C/c1ccc(OC(F)F)cc1)CCC2 | 25.3% |
| COc1cc(C2C(C(C)=O)=C(O)C(=O)N2CCc2ccc(OC)c(OC)c2)ccc1O (stereo not drawn) | 24.3% |
| CCN(CC)S(=O)(=O)c1ccc(C)c(NC(=O)CN(C)C)c1 | 7.04% |
| Brc1ccc(OCCOCCN2CCOCC2)cc1 | -9% |
| CC(C)(c1cc(Br)c(O)c(Br)c1)c1cc(Br)c(O)c(Br)c1 | -12.8% |
| COc1cc(NC(=O)COc2cc3oc(=O)cc(C)c3cc2Cl)cc(OC)c1OC | 15.9% |
| O=C(NCCS(=O)c1ccc(Cl)cc1)c1cccc(Cl)c1 (stereo not drawn) | -12.2% |
| CN(C(=O)c1cccc(C#N)c1)c1nnc(-c2ccccn2)s1 | 4.41% |
| N/C(=N\OC(=O)c1cccc(Br)c1)c1ccccn1 | 21.6% |
| CN1C2CCC1/C(=C\c1ccc(F)cc1)C(=O)/C2=C/c1ccc(F)cc1 | -28.1% |
| COCCCNC(=O)/C(C#N)=C/c1ccc(OCC(=O)O)c(OC)c1 | 3.89% |
| C=CCNC(=O)Nc1ccc(F)c(Cl)c1 | 7.39% |
| O=C(CCNC(=O)c1ccccc1Cl)NCC1CCCO1 (stereo not drawn) | -13.2% |
| O=C(N/N=C/c1cccnc1)c1ccc(NC(=O)C(c2ccccc2)c2ccccc2)cc1 | -24.2% |
| COc1ccc(-c2nn(CCC#N)cc2C(=O)O)cc1 | 16.9% |
| Cc1cc(F)ccc1S(=O)(=O)NCC(c1cccnc1)N1CCc2ccccc21 (stereo not drawn) | -1.61% |
| O=C1CCC([N+](=O)[O-])C(c2cc3c(cc2Cl)OCO3)N1 (stereo not drawn) | 8.22% |
| CCC(C)c1ccccc1NC(=O)COC(=O)C1=COCCO1 (stereo not drawn) | 6.9% |
| N#C/C(=C\c1ccccc1)C(=O)N(c1ccccn1)C1CCCCC1 | -20% |
